Laboratory results published in paper PMC11638247.
No constants are given. Whether binding was seen depends on the method and setting. For some assays here: In cells and extracts the contact can be indirect. Some entries that bind do so weakly or less than the wild type.

Sequences of proteins named here, by UniProt entry; tags and fusion partners are left off.
UniProt Q9EPN1: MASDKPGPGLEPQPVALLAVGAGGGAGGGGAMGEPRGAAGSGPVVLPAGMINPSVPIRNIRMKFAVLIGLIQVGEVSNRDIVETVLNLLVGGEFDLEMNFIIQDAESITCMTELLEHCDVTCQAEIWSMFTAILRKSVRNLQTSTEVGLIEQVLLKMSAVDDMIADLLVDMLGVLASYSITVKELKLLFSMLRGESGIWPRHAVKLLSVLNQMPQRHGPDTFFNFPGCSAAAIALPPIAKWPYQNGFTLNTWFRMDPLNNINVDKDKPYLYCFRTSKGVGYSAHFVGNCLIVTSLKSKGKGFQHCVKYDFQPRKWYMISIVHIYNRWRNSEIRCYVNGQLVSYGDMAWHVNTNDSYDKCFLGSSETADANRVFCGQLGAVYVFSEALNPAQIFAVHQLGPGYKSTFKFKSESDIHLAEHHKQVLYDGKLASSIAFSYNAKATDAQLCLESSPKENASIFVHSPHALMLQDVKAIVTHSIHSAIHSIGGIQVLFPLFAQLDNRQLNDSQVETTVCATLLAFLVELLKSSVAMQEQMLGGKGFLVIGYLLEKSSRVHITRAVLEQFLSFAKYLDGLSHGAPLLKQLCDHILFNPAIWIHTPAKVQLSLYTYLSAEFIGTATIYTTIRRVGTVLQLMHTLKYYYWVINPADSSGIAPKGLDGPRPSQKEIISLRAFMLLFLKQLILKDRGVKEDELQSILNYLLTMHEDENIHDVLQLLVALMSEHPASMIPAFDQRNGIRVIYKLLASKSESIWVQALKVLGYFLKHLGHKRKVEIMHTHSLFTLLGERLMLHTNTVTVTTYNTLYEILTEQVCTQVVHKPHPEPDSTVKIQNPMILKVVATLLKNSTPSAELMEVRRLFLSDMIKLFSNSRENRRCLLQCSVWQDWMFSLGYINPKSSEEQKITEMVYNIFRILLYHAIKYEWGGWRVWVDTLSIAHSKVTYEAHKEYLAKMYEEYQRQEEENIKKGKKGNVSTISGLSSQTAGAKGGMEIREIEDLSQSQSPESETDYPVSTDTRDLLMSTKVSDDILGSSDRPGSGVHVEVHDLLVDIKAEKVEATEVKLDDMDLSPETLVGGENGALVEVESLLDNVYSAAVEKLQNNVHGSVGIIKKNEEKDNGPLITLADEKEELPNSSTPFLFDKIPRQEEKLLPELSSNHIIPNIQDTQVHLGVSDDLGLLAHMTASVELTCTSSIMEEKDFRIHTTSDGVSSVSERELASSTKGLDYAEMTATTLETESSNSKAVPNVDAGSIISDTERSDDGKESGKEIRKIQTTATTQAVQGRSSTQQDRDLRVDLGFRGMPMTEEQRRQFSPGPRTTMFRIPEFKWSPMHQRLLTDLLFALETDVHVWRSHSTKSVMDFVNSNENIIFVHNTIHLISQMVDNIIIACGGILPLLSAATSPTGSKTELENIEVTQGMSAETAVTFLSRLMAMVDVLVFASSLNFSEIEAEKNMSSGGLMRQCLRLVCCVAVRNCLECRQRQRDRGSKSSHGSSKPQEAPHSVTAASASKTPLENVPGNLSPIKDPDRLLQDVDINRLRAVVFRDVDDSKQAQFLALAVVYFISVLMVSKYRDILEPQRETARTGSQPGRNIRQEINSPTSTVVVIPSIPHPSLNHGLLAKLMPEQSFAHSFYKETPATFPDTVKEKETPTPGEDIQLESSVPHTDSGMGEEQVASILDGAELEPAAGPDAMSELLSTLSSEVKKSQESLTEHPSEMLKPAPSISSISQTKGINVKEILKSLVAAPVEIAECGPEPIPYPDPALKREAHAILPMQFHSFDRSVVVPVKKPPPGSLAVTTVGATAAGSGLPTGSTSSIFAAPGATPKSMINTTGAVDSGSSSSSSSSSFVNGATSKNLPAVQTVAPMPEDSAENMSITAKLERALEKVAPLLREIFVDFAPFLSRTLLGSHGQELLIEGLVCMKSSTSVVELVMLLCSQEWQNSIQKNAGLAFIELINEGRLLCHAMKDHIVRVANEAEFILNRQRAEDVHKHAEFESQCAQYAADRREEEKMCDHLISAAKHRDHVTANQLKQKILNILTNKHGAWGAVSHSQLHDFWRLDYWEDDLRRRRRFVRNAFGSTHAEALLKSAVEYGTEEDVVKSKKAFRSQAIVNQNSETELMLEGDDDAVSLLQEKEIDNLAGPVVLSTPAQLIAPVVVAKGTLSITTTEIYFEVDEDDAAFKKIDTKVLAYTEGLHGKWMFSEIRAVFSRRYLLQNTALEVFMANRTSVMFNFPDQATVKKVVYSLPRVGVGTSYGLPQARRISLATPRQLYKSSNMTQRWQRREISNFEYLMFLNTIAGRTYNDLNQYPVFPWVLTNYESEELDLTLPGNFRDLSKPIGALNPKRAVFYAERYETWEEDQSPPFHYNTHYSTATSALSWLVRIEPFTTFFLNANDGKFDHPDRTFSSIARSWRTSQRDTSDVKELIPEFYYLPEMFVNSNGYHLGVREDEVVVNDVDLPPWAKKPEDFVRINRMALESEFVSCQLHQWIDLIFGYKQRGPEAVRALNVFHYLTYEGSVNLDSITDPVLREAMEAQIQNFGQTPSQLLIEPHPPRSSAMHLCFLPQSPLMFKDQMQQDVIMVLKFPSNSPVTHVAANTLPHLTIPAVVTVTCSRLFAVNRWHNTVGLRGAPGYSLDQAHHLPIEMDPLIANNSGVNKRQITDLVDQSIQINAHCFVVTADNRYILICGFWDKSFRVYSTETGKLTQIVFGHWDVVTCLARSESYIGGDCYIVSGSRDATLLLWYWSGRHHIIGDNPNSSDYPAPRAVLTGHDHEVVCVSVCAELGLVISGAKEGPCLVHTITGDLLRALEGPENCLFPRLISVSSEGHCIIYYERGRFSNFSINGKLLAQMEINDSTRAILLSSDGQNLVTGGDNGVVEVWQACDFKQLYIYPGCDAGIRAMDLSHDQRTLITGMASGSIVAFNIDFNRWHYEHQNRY

T1: GABAA receptor γ2 subunit (GABAAR γ2-containing receptors), endogenous (mouse (endogenous in cortex)) (UniProt P22723)
T1 sequence: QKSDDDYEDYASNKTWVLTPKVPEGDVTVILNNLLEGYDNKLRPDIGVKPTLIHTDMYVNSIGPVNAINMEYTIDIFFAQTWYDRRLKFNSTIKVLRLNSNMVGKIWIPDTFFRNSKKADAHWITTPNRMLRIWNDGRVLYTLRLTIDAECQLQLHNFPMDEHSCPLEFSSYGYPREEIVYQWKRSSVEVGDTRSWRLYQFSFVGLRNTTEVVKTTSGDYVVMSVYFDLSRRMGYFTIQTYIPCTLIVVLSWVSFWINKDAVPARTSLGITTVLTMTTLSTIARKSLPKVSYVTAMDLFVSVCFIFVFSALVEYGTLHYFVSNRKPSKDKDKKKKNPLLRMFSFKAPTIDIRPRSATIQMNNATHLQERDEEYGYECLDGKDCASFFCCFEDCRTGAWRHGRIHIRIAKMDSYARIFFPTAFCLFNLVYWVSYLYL


Key:
GFP-Nbea = GFP-Nbea (UniProt Q9EPN1); assay: pull-down; GFP-Nbea from COS-7 lysate held on GFP-Trap magnetic beads, stringently washed (500 mM NaCl, 0.1% SDS, 1% Triton X-100) to remove ancillary proteins, then incubated 1 h with 4 µg purified gephyrin; 4 °C; Western blot; both purified
[1] = biological target: T1, GABAA receptor γ2 subunit (GABAAR γ2-containing receptors), endogenous (mouse (endogenous in cortex)); assay: co-IP; antibody on Dynabeads Protein G incubated 2-4 h with adult mouse cortical lysate P2; IM-Ac buffer with 1% Triton, pH 7.2, 4 °C; Western blot

| binding (GFP-Nbea) | binding [1] | Binder |
| --- | --- | --- |
| binds | – | Full-length gephyrin (purified) (protein, UniProt Q03555 1-768) MATEGMILTNHDHQIRVGVLTVSDSCFRNLAEDRSGINLKDLVQDPSLLGGTISAYKIVPDEIEEIKETLIDWCDEKELNLILTTGGTGFAPRDVTPEKFPTFPFCGLQKGATKEVIEREAPGMALAMLMGSLNVTPLGMLSRPVCGIRGKTLIINLPGSKKGSQECFQFILPALPHAIDLLRDAIVKVKEVHDELEDLPSPPPPLSPPPTTSPHKQTEDKGVQCEEEEEEKKDSGVASTEDSSSSHITAAALAAKIPDSIISRGVQVLPRDTASLSTTPSESPRAQATSRLSTASCPTPKQIRRPDESKGVASRVGSLKVQSRCSSKENILRASHSAVDITKVARRHRMSPFPLTSMDKAFITVLEMTPVLGTEIINYRDGMGRVLAQDVYAKDNLPPFPASVKDGYAVRAADGPGDRFIIGESQAGEQPTQTVMPGQVMRVTTGAPIPCGADAVVQVEDTELIRESDDGTEELEVRILVQARPGQDIRPIGHDIKRGECVLAKGTHMGPSEIGLLATVGVTEVEVNKFPVVAVMSTGNELLNPEDDLLPGKIRDSNRSTLLATIQEHGYPTINLGIVGDNPDDLLNALNEGISRADVIITSGGVSMGEKDYLKQVLDIDLHAQIHFGRVFMKPGLPTTFATLDIDGVRKIIFALPGNPVSAVVTCNLFVVPALRKMQGILDPRPTIIKARLSCDVKLDPRPEYHRCILTWHHQEPLPWAQSTGNQMSSRLMSMRSANGLLMLPPKTEQYVELHKGEVVDVMVIGRL |
| – | binds | Gephyrin (endogenous) (protein, UniProt Q8BUV3 1-769) MATEGMILTNHDHQIRVGVLTVSDSCFRNLAEDRSGINLKDLVQDPSLLGGTISAYKIVPDEIEEIKETLIDWCDEKELNLILTTGGTGFAPRDVTPEATKEVIEREAPGMALAMLMGSLNVTPLGMLSRPVCGIRGKTLIINLPGSKKGSQECFQFILPALPHAIDLLRDAIVKVKEVHDELEDLPSPPPPLSPPPTTSPHKQTEDKGVQCEEEEEEKKDSGVASTEDSSSSHITAAALAAKIPDSIISRGVQVLPRDTASLSTTPSESPRAQATSRLSTASCPTPKQIRRPDESKGVASRVGSLKARLPSCSSTYSVSEVQSRCSSKENILRASHSAVDITKVARRHRMSPFPLTSMDKAFITVLEMTPVLGTEIINYRDGMGRVLAQDVYAKDNLPPFPASVKDGYAVRAADGPGDRFIIGESQAGEQPTQTVMPGQVMRVTTGAPIPCGADAVVQVEDTELIRESDDGTEELEVRILVQARPGQDIRPIGHDIKRGECVLAKGTHMGPSEIGLLATVGVTEVEVNKFPVVAVMSTGNELLNPEDDLLPGKIRDSNRSTLLATIQEHGYPTINLGIVGDNPDDLLNALNEGISRADVIITSGGVSMGEKDYLKQVLDIDLHAQIHFGRVFMKPGLPTTFATLDIDGVRKIIFALPGNPVSAVVTCNLFVVPALRKMQGILDPRPTIIKARLSCDVKLDPRPEYHRCILTWHHQEPLPWAQSTGNQMSSRLMSMRSANGLLMLPPKTEQYVELHKGEVVDVMVIGRL |
